The IC50 comes from the fitted curve, where viability falls to half of the control; where the fit passes the top or lowest dose, that dose stands as a limit. AUC is the area under the same curve over the 256-fold range up to the top dose, as a fraction: 1 means no effect, lower means more sensitive. For some of these results: The top dose, if marked as inferred, comes from the curve model; the source does not state it. For some of these results: Drugs with an entry number were screened twice under separate entries, and the two screens often disagree.
How the values were obtained:
Experiment in all cases: Viability of human cancer cell lines after 72 h of drug (GDSC screen)
OSU-03012 = compound: NCC(=O)Nc1ccc(-n2nc(C(F)(F)F)cc2-c2ccc3c(ccc4ccccc43)c2)cc1 [OSU-03012]; details: top dose 16 µM; top dose inferred
Description: (§1)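 Human cancer cell lines in 384-well plates, medium with 10% serum, drug for 72 h over a 256-fold dose range (nine 2-fold or five 4-fold steps up to the top dose). Adherent lines were fixed and stained with the nucleic acid dye Syto60, suspension lines read with resazurin; signal relative to control wells, capped at 0 and 100%. One two-parameter sigmoid per drug and line, fitted in a mixed model over all curves with the slope shared within a line.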

QS11 = compound: OC[C@H](Cc1ccccc1)Nc1nc(Oc2ccc3c(c2)CCC3)nc2c1ncn2Cc1ccc(-c2ccccc2)cc1 [QS11]; details: top dose 10.24 µM
Description: as §1

AC220 = compound: CC(C)(C)c1cc(NC(=O)Nc2ccc(-c3cn4c(n3)sc3cc(OCCN5CCOCC5)ccc34)cc2)no1 [AC220]; details: top dose 1.024 µM; top dose inferred
Description: as §1

JNK-9L = compound: Fc1cc(-c2ccnc(Nc3ccc(-n4cnc(N5CCOCC5)n4)cc3)n2)cc(N2CCOCC2)c1 [JNK-9L]; details: top dose 5.12 µM; top dose inferred
Description: as §1

CUDC-101 = compound: C#Cc1cccc(Nc2ncnc3cc(OC)c(OCCCCCCC(=O)NO)cc23)c1 [CUDC-101]; details: top dose 5.12 µM; top dose inferred
Description: as §1

RDEA119 = compound: COc1cc(F)c(F)c(Nc2ccc(I)cc2F)c1NS(=O)(=O)C1(C[C@H](O)CO)CC1 [RDEA119]; details: top dose 5 µM, top dose inferred
Description: as §1

5-Fluorouracil = compound: O=c1[nH]cc(F)c(=O)[nH]1 [5-Fluorouracil]; details: top dose 32 µM; top dose inferred
Description: as §1

| Cell Line | AUC (OSU-03012) | IC50 (OSU-03012) [µM] | AUC (QS11) | IC50 (QS11) [µM] | AUC (AC220) | IC50 (AC220) [µM] | AUC (JNK-9L) | IC50 (JNK-9L) [µM] | AUC (CUDC-101) | IC50 (CUDC-101) [µM] | AUC (RDEA119; screen: GDSC drug entry 1014) | IC50 (RDEA119; screen: GDSC drug entry 1014) [µM] | AUC (RDEA119; screen: GDSC drug entry 1526) | IC50 (RDEA119; screen: GDSC drug entry 1526) [µM] | AUC (5-Fluorouracil) | IC50 (5-Fluorouracil) [µM] |
| --- | --- | --- | --- | --- | --- | --- | --- | --- | --- | --- | --- | --- | --- | --- | --- | --- |
| MDA-MB-415 (breast, adherent) | 0.817 | 13.1 | 0.98 | > 10.2 | 0.983 | > 1.02 | 0.711 | 1.56 | 0.893 | > 5.12 | 0.871 | > 5 | 0.913 | > 5 | 0.981 | > 32 |
| NCI-H2110 (non-small cell lung carcinoma, adherent) | 0.735 | 4.78 | 0.909 | > 10.2 | 0.983 | > 1.02 | 0.603 | 0.619 | 0.583 | 0.545 | 0.899 | > 5 | 0.87 | 4.83 | 0.766 | 12.1 |
| HT-1080 (fibrosarcoma, adherent) | 0.543 | 1.29 | 0.817 | 4.98 | 0.989 | > 1.02 | 0.481 | 0.286 | 0.708 | 1.15 | 0.591 | – | 0.743 | 1.41 | 0.967 | > 32 |
| BEN (non-small cell lung carcinoma, adherent) | 0.744 | 5.6 | 0.971 | > 10.2 | 0.98 | > 1.02 | 0.61 | 0.673 | 0.692 | 1.21 | – | – | 0.976 | > 5 | 0.838 | 26.2 |
| SNB75 (glioma, adherent) | 0.842 | > 16 | 0.97 | > 10.2 | 0.965 | > 1.02 | 0.498 | 0.314 | 0.715 | 1.75 | 0.836 | > 5 | 0.782 | 3.22 | 0.846 | > 32 |
| KYSE-450 (oesophagus, adherent) | 0.614 | 2.02 | 0.869 | 8.57 | 0.987 | > 1.02 | 0.491 | 0.303 | 0.379 | 0.152 | 0.89 | > 5 | 0.942 | > 5 | 0.504 | 2.04 |
| ES4 (Ewing sarcoma, adherent) | 0.55 | 1.4 | 0.854 | 10 | 0.973 | > 1.02 | 0.466 | 0.255 | 0.813 | 3.3 | 0.875 | > 5 | 0.94 | > 5 | 0.654 | 5.72 |
| NCI-H661 (large cell lung carcinoma, adherent) | 0.826 | 12.5 | 0.922 | > 10.2 | 0.973 | > 1.02 | 0.595 | 0.616 | 0.465 | 0.252 | 0.916 | > 5 | 0.92 | > 5 | 0.937 | > 32 |
| Hs683 (glioma, adherent) | 0.784 | 6.9 | 0.903 | > 10.2 | 0.984 | > 1.02 | 0.637 | 0.768 | 0.87 | 4.85 | 0.868 | 4.66 | 0.916 | > 5 | 0.98 | > 32 |
| PA-1 (ovary, adherent) | 0.646 | 2.3 | 0.92 | 9.83 | 0.99 | > 1.02 | 0.41 | 0.192 | 0.255 | 0.0772 | 0.988 | > 5 | – | – | 0.451 | 1.52 |
| HCC1419 (breast, adherent) | 0.865 | > 16 | 0.957 | > 10.2 | 0.918 | > 1.02 | 0.654 | 1.03 | 0.721 | 1.8 | 0.972 | > 5 | 0.965 | > 5 | 0.968 | > 32 |
| Detroit562 (head and neck, adherent) | 0.8 | 7.37 | 0.97 | > 10.2 | 0.988 | > 1.02 | 0.505 | 0.331 | 0.744 | 1.54 | 0.894 | > 5 | 0.906 | > 5 | 0.975 | > 32 |
| TOV-21G (ovary, adherent) | 0.812 | 9.49 | 0.734 | 3.18 | 0.984 | > 1.02 | 0.799 | 2.71 | 0.811 | 3.01 | 0.789 | 2.42 | 0.818 | 3.14 | 0.957 | > 32 |
| 639-V (bladder, adherent) | 0.271 | 0.252 | 0.623 | 1.32 | 0.992 | > 1.02 | 0.444 | 0.231 | 0.747 | 1.43 | 0.864 | 3.33 | 0.934 | > 5 | 0.954 | > 32 |
| SCC-9 (head and neck, adherent) | 0.873 | > 16 | 0.981 | > 10.2 | 0.976 | > 1.02 | 0.464 | 0.248 | 0.421 | 0.183 | 0.895 | > 5 | 0.669 | 1.06 | 0.83 | 28.3 |
| RERF-GC-1B (stomach, adherent) | 0.788 | 7.94 | 0.871 | > 10.2 | 0.983 | > 1.02 | 0.771 | 2.2 | 0.935 | > 5.12 | – | – | 0.837 | 3.91 | 0.831 | 23.7 |
| PCI-15A (head and neck, adherent) | 0.772 | 6.25 | 0.988 | > 10.2 | 0.975 | > 1.02 | 0.637 | 0.769 | 0.88 | > 5.12 | 0.713 | 1.25 | 0.8 | 2.44 | 0.986 | > 32 |
